# Test results published in publication PMC4336329 (PLoS ONE, 2015).
# Out of some 310,000 compounds screened, about 2,200 (0.71%) showed an effect of 50% or more. The effect is printed as a negative number. Some of the results follow.
# Target: human ether-à-go-go-related gene (hERG) potassium channel (human, UniProt Q12809)
# Assay: primary screen, population patch clamp on CHO cells stably expressing hERG
# human ether-à-go-go-related gene (hERG) potassium channel, sequence (Q12809 whole entry, looked up): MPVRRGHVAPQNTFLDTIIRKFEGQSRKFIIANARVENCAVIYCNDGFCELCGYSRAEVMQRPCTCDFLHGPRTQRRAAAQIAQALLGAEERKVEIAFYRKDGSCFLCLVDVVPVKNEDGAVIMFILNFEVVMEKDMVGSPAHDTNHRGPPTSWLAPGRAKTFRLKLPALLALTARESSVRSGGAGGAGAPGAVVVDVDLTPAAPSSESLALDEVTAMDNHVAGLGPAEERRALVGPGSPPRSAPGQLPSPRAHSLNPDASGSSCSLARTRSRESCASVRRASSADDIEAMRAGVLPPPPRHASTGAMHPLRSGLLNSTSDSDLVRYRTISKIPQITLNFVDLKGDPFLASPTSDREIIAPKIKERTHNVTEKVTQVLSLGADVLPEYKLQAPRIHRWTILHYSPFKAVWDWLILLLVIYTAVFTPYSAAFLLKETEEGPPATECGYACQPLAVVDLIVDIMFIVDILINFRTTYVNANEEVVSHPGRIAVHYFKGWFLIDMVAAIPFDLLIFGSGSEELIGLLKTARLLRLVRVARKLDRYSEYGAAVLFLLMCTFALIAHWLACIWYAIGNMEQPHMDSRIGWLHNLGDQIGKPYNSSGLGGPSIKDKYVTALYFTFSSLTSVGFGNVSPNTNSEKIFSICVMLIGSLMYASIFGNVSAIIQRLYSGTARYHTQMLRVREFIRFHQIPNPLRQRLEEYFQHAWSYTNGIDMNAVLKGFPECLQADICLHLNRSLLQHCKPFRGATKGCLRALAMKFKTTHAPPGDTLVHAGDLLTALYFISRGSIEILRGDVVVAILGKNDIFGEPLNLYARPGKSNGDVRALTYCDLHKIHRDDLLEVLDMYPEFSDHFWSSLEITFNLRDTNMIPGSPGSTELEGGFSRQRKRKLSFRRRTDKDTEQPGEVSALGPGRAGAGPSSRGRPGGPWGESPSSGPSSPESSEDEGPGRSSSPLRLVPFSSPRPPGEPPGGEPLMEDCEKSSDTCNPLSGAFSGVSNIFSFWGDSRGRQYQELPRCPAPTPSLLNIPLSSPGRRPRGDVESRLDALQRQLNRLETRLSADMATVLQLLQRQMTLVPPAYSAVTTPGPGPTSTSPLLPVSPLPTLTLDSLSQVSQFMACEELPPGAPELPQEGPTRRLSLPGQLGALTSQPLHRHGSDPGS
row,Structure (SMILES),"hERG current change (%, negative = inhibition) at 1uM [%]"
1,O=C(NCCCn1ccnc1)c1cc(C(=O)C2CC2)c[nH]1,12.4
2,COc1ccc(OC)c(Cc2nnc(CCC(=O)NC3C4CC5CC(C4)CC3C5)o2)c1 (stereo not drawn),3.34
3,CC1(c2ccccc2)CC(C)(C)N2C(=O)/C(=C3\SC(=S)NC3=O)c3cccc1c32 (stereo not drawn),2.4
4,CCCCCCNS(=O)(=O)c1ccc(OC)c(OC)c1,-2.33
5,Cc1cc2ncn(/N=C/c3cccnc3)c2cc1C,3.9
6,O=C(Cc1ccsc1)NNC(=O)c1ccc(F)cc1,-14
7,CS(=O)(=O)N1CCN(c2ccc(NC(=O)c3ccc(-c4ccc(Cl)cc4)o3)cc2)CC1,-0.334
8,N#Cc1cccc(S(=O)(=O)NCC(=O)OCC(=O)c2ccc[nH]2)c1,1.14
9,CCc1c(C)c2ccc(OCC(N)=O)cc2oc1=O,3.26
10,Br.O=C(CN1C2=NCCN2c2ccccc21)c1ccc2c(c1)OCO2,-42.1
11,Cn1ncc(Cl)c1C(=O)N1CCN(c2ccc(F)cc2)CC1,17.5
12,O=C(COc1ccc(Cl)cc1Cl)NNC(=O)c1cccnc1,17.6
13,Cc1ccc(NS(=O)(=O)c2cccc(C(=O)NCc3ccccn3)c2)cc1,-47
14,CC1Sc2ccc(S(=O)(=O)CCC(=O)N3CCN(c4ccccc4F)CC3)cc2NC1=O (stereo not drawn),8.74
15,O=C1C2C3C=CC(C3)C2C(=O)N1c1ccccc1OS(=O)(=O)c1ccccc1 (stereo not drawn),10
16,CCC(=O)Nc1c(-c2ccc(Cl)cc2)c(=O)c2ccccc2n1C,9.36
17,CCn1cnc2c1c(=O)n(Cc1csc(-c3ccccc3)n1)c(=O)n2Cc1ccccc1,3.7
18,O=C(Nc1ccc(CSc2ccccc2)cc1)c1ccco1,8.68
19,CCCSC1=N/C(=C\c2ccc3c(c2)OCO3)C(=O)S1,6.42
20,CSCC[C@H](NC(=O)N1CCn2c1nc1ccccc12)C(=O)NCc1ccc(F)cc1,-13.2
21,Cc1cc(=O)oc2cc(OCC(=O)N3C[C@H]4C[C@@H](C3)c3cccc(=O)n3C4)c(Cl)cc12,13.8

row,Structure (SMILES),"hERG current change (%, negative = inhibition) at 1uM [%]"
1,Cn1cc([N+](=O)[O-])c(C(=O)N(Cc2ccccc2)Cc2ccccc2)n1,3.39
2,NC(=O)COC(=O)c1cc(S(=O)(=O)N2CCN(c3ccccc3)CC2)ccc1Cl,13.2
3,O=C(c1cccc(N2C(=O)C3C4C=CC(C4)C3C2=O)c1)N1CCCCCC1 (stereo not drawn),-5.07
4,COc1ccccc1N1CCN(C(=O)c2ccc3[nH]c(C)c(C)c3c2)CC1,20.1
5,CN1CCN(c2nc3ccccc3nc2C(C#N)C(=O)OC2CCCCC2)CC1 (stereo not drawn),-27.7
6,Cc1cc(C(=O)Nc2cccc(S(=O)(=O)N3CCCCC3)c2)c2ccccc2n1,7.45
7,COc1ccc(S(=O)(=O)n2nc(OC(=O)c3ccccc3)cc2N)cc1,5.14
8,Cc1c(C(=O)Nc2ccc(S(=O)(=O)N(C)C3CCN(C)CC3)cc2)oc2c(Cl)cccc12,11.6
9,CCN(Cc1ccccc1)C(=S)NC(=O)c1ccccc1Br,13.6
10,CCOC(=O)c1ccc(CNC(=O)Cn2nnc(-c3ccccc3)n2)o1,5.45
11,O=C(O)CCSCCC(=O)O,14.3
12,Cc1c(NS(=O)(=O)c2ccc(NC(=O)CCC(=O)O)cc2)c(=O)n(-c2ccccc2)n1C,6.21
13,COc1ccc(N2CCN(C(=O)c3ccc(COc4ccc5c(C)cc(=O)oc5c4)cc3)CC2)cc1,6.18
14,COC(=O)c1c(NC(=O)CN2C(=O)NC3(CCC(C(C)(C)C)CC3)C2=O)sc2c1CCCCC2 (stereo not drawn),13.5
15,O=C(CCOc1ccccc1)OCC(=O)c1cc2ccccc2o1,-1.07
16,CCn1c(SCC(=O)NCc2ccco2)nnc1C1CCCC1,16.6
17,CC(C(=O)NN)n1nnc(N2CCOCC2)n1 (stereo not drawn),9.87
18,CC(=O)Oc1cccc(N2C(=O)C3C4C=CC(C4)C3C2=O)c1 (stereo not drawn),9.76
19,Nc1cc(OCC(F)(F)F)cc(OCC(F)(F)F)c1,7.24
20,O=C(Nc1ccnc(-c2cccnc2)n1)c1ccccc1Cl,4.52
21,COc1cccc(NC(=O)CCN2C(=O)c3cccc([N+](=O)[O-])c3C2=O)c1,1.59
